In the supplement of paper PMC12217912:
The list shows a part of the results. Sequences were assembled here from the parent chain. Inactive controls read about 0.05.

B1: TEV protease; numbered along this chain (parent)
chain: MGESLFKGPRDYNPISSSICHLTNESDGHTTSLYGIGFGPFIITNKHLFRRNNGTLVVQSLHGVFKVKDTTTLQQHLVDGRDMIIIRMPKDFPPFPQKLKFREPQREERICLVTTNFQTKSMSSMVSDTSCTFPSGDGIFWKHWIQTKDGQCGSPLVSTRDGFIVGIHSASNFTNTNNYFTSVPKNFMELLTNQEAQQWVSGWRLNADSVLWGGHKVFMVKPEEPFQPVKEATQL

Variants of: B1
Experiment: raw area under fraction-flipped curve 0-4 h after induction (AUC4h, not background-subtracted), DNA-recorder readout of cleavage of the substrate (dimensionless); higher = more cleavage of the substrate by the protease variant
Details: temperature: 34 °C; time window: 0-4 h after rhamnose induction
Method: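 In vivo DNA recorder in E. coli TOP10(DE3) ΔrhaA at 34 °C. Each TEVp single-site mutant (parent TEVp 0) is paired with a single-site variant of the 7-mer TEVs (canonical ENLYFQ|S). The substrate sits between flexible linkers in a Bxb1-sfGFP-TEVs-SsrA fusion, so cleavage stabilises Bxb1 and speeds flipping of a recombination array, read by NGS. The value is the raw area under the fraction-flipped curve over 0-4 h after rhamnose induction (AUC4h), with ≥20 reads per time point. It is not background-subtracted; inactive controls average about 0.047.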
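Also: Bxb1 expression induced with 0.2% (w/v) L-rhamnose at OD600 near 0.5, cultures sampled hourly, flipped fraction per protease–substrate barcode pair counted by paired-end Illumina sequencing.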

Variant | area with substrate ENCYFQS | area with substrate ENDYFQS | area with substrate ENEYFQS | area with substrate ENFYFQS | area with substrate ENGYFQS | area with substrate ENHYFQS | area with substrate ENKYFQS | area with substrate ENNYFQS | area with substrate ENQYFQS | area with substrate ENRYFQS | area with substrate ENSYFQS | area with substrate ENTYFQS | area with substrate ENVYFQS | area with substrate ENYYFQS | area with substrate ENIYFQS | area with substrate ENPYFQS | area with substrate ENMYFQS | area with substrate ENWYFQS
H47Q | 0.0636 | 0.056 | 0.0672 | 0.0785 | 0.0979 | 0.0579 | 0.0563 | 0.0652 | 0.0558 | 0.052 | 0.0569 | 0.066 | 0.059 | 0.0668 | – | – | – | –
N52E | 0.0664 | – | 0.0697 | 0.0625 | 0.0086 | – | 0.0454 | 0.0453 | – | – | 0.0636 | 0.0231 | 0.0541 | – | 0.0815 | – | – | –
V58N | 0.0562 | – | – | – | – | – | – | – | – | 0.052 | – | – | 0.037 | – | – | – | – | –
F65D | 0.0713 | 0.0478 | 0.058 | – | – | – | 0.0564 | – | 0.0576 | – | 0.0567 | – | 0.101 | 0.0604 | – | 0.0398 | – | –
K66G | 0.0671 | – | 0.0481 | 0.0608 | – | – | 0.0584 | 0.0634 | 0.048 | 0.0563 | 0.04 | 0.0473 | – | – | 0.1 | – | 0.0713 | 0.0466
Q74Y | 0.0629 | – | 0.0582 | 0.052 | 0.0596 | 0.0638 | – | 0.0692 | 0.0559 | 0.0644 | – | – | 0.0785 | 0.0506 | – | 0.0611 | 0.0803 | –
Q75V | 0.0545 | 0.0564 | 0.0671 | 0.0524 | 0.0699 | – | 0.0629 | 0.0746 | 0.0601 | 0.0449 | – | 0.0384 | – | 0.0565 | – | – | 0.0675 | –
G80S | 0.0594 | – | 0.0673 | 0.049 | 0.0609 | 0.0387 | – | 0.057 | – | 0.0359 | – | 0.0631 | 0.0694 | 0.083 | – | – | – | –
R81W | 0.062 | 0.0724 | – | 0.0605 | 0.0616 | – | 0.0388 | 0.063 | 0.0545 | 0.0603 | 0.0534 | 0.0542 | 0.0637 | 0.0602 | 0.0618 | – | 0.0674 | –
D82P | 0.0538 | 0.056 | 0.0651 | – | – | 0.0568 | – | 0.0543 | 0.0667 | 0.0694 | 0.116 | – | 0.0619 | 0.0577 | 0.0579 | – | – | –
I84T | 0.0596 | – | – | 0.059 | – | – | – | – | – | 0.066 | 0.0805 | – | 0.0563 | – | 0.0829 | – | – | –
R87F | 0.0564 | 0.061 | 0.0707 | 0.0546 | 0.0587 | – | – | 0.0609 | 0.0543 | 0.0419 | 0.0628 | 0.0567 | 0.0584 | 0.11 | 0.0723 | – | 0.0724 | –
P93T | 0.0614 | – | 0.0799 | 0.0379 | 0.062 | – | – | 0.0545 | – | 0.0512 | – | – | – | – | – | 0.0597 | – | 0.0548
F95D | 0.0559 | – | 0.0373 | 0.0495 | – | – | – | 0.0453 | 0.0436 | – | 0.0382 | 0.0274 | – | 0.0477 | – | – | – | –
R102P | 0.0426 | 0.0391 | 0.0464 | – | – | – | – | 0.0655 | 0.0275 | 0.0539 | 0.036 | – | 0.062 | – | 0.0454 | – | – | 0.0597
R106V | 0.0745 | 0.0622 | 0.0787 | 0.0588 | 0.0745 | 0.0727 | 0.0624 | 0.0634 | 0.0692 | 0.0584 | – | 0.0692 | 0.0889 | – | 0.133 | – | – | 0.0546
